Assay results published in a collection of fitness landscapes (doi:10.1016/j.celrep.2020.107928).
Over roughly 81,000 sequences, “one-hybrid fitness for binding parS DNA” has its median near -0.17; the highest 2% begin near 0.51. The list shows a part of the results.

B1: Caulobacter ParB omega fusion; a variant is named by its letters at X, in order, B8GW30 (parent)
chain: MESVVVGEPGMSEGRRGLGRGLSALLGEVDAAPAQAPGEQLGGSREAPIEILQRNPDQPRRTFREEDLEDLSNSIREKGVLQPILVRPSPDTAGEYQIVAGERAWRAAQRAGLKTVPIMVRELDDLAVLEIGIIENVQRADLNVLEEALSYKVLMEKFERTQENIAQTIGKSXSHVANXMRLLXLPDEVQSYLVSGELTAXHARAIAAAADPVALAKQIIEGGLSVRETEALARKAPNLSAGKSKGGRPPRVKDTDTQALESDLSSVLGLDVSIDHRGSTGTLTITYATLEQLDDLCNRLTRGI

Variants of: B1
Experiment: one-hybrid fitness for binding parS DNA (scaled: cognate 1, non-cognate 0); higher = stronger binding
Conditions: with parS DNA site
Summary of the method: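 Selection: bacterial one-hybrid in E. coli USO, HIS3 reporter with the site 19 bp from the promoter, 48 hours at 37°C on M9-minus-histidine plus 0.1 mM IPTG and 5 mM 3-AT. Libraries were Caulobacter ParB with four randomised specificity codons, sequenced on Illumina before and after selection. Fitness is the rescaled log change in variant-to-wild-type read ratio, anchored to the cognate and non-cognate sites.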

Variant	one-hybrid fitness for binding parS DNA
FIKK	≤ 0.2
FGTK	≤ 0.2
TGSC	≤ 0.2
DNEY	≤ 0.2
HLRL	≤ 0.2
GWHT	≤ 0.2
KRQG	≤ 0.2
VHGS	≤ 0.2
PARQ	≤ 0.2
ALWT	≤ 0.2
RMST	0.945
RFSC	0.935
RAAI	≤ 0.2
FRSF	≤ 0.2
YTAS	≤ 0.2
SQNW	≤ 0.2
QQKN	≤ 0.2
NMPR	≤ 0.2
SPMM	≤ 0.2
CGYT	≤ 0.2
GAAS	≤ 0.2
RPGI	≤ 0.2
STAC	≤ 0.2
LTIM	≤ 0.2
YDDL	≤ 0.2

Variant	one-hybrid fitness for binding parS DNA
LCKM	≤ 0.2
NHTN	≤ 0.2
PGVN	≤ 0.2
CVLH	≤ 0.2
ILGR	≤ 0.2
YSLF	≤ 0.2
EGLT	≤ 0.2
WCGS	≤ 0.2
TGAC	≤ 0.2
VLCC	≤ 0.2
NFRE	≤ 0.2
RQGE	≤ 0.2
PSRL	≤ 0.2
TMTC	≤ 0.2
VWIQ	≤ 0.2
HHIV	≤ 0.2
CWAR	≤ 0.2
APRL	≤ 0.2
AIMV	≤ 0.2
FSQC	≤ 0.2
ALNE	≤ 0.2
CMMC	≤ 0.2
PDDE	≤ 0.2
CVKY	≤ 0.2
GCIF	≤ 0.2

Variant	one-hybrid fitness for binding parS DNA
NFWT	≤ 0.2
IDCY	≤ 0.2
TFRT	≤ 0.2
QNNY	≤ 0.2
CNLM	≤ 0.2
PQNN	≤ 0.2
KIMG	≤ 0.2
VDRC	≤ 0.2
VVGV	≤ 0.2
IKQG	≤ 0.2
SSYT	≤ 0.2
TNRF	≤ 0.2
TDNW	≤ 0.2
AAYS	≤ 0.2
RSAG	0.992
QVGD	≤ 0.2
TCNG	≤ 0.2
PCPE	≤ 0.2
NTGG	≤ 0.2
GGRW	≤ 0.2
WMVR	≤ 0.2
TIQV	≤ 0.2
FEPR	≤ 0.2
KYHG	≤ 0.2
YGHG	≤ 0.2

Variant	one-hybrid fitness for binding parS DNA
QKRS	≤ 0.2
AAKR	≤ 0.2
TKDM	≤ 0.2
TKDH	≤ 0.2
RLIV	≤ 0.2
WSPP	≤ 0.2
YLLC	≤ 0.2
SSSL	≤ 0.2
PNHL	≤ 0.2
GGPE	≤ 0.2
YTVR	≤ 0.2
MLGG	≤ 0.2
YDNG	≤ 0.2
IKTN	≤ 0.2
TDTF	≤ 0.2
EYDG	≤ 0.2
QLSI	≤ 0.2
LVSI	≤ 0.2
CNVR	≤ 0.2
ACSN	≤ 0.2
QHMD	≤ 0.2
PAKV	≤ 0.2
ESSC	≤ 0.2
SQEV	≤ 0.2
GPMM	≤ 0.2

Variant	one-hybrid fitness for binding parS DNA
IMRS	≤ 0.2
HPTI	≤ 0.2
GRWT	≤ 0.2
NNLD	≤ 0.2
ALTS	≤ 0.2
RTPP	≤ 0.2
KING	≤ 0.2
IYCG	≤ 0.2
GRPH	≤ 0.2
LDQD	≤ 0.2
QKQA	≤ 0.2
SPSG	≤ 0.2
VRTM	≤ 0.2
THSG	≤ 0.2
KRIG	≤ 0.2
WMSR	≤ 0.2
HTTH	≤ 0.2
GMWT	≤ 0.2
PGDH	≤ 0.2
RSVP	≤ 0.2
PESK	≤ 0.2
GHSM	≤ 0.2
DRPG	≤ 0.2
KWTS	≤ 0.2
LMPT	≤ 0.2

Variant	one-hybrid fitness for binding parS DNA
MLQC	≤ 0.2
RLRF	0.282
KFHT	≤ 0.2
YPRA	≤ 0.2
HAMR	≤ 0.2
YCDG	≤ 0.2
YKMT	≤ 0.2
DSHV	≤ 0.2
TNEY	≤ 0.2
RTKP	≤ 0.2
YTGS	≤ 0.2
RFPV	≤ 0.2
YTAR	≤ 0.2
DSIQ	≤ 0.2
PQSI	≤ 0.2
LATM	≤ 0.2
HKAT	≤ 0.2
DWHG	≤ 0.2
EPIG	≤ 0.2
RDTC	≤ 0.2
YRVT	≤ 0.2
RVIC	0.846
NGQK	≤ 0.2
ALVM	≤ 0.2
SHEI	≤ 0.2

Variant	one-hybrid fitness for binding parS DNA
TKIH	≤ 0.2
CFTK	≤ 0.2
FATM	≤ 0.2
CPSL	≤ 0.2
RWWL	≤ 0.2
PAWL	≤ 0.2
MVSI	≤ 0.2
TNTC	≤ 0.2
MEYL	≤ 0.2
GLPQ	≤ 0.2
QQYA	≤ 0.2
QLAI	≤ 0.2
QDAG	≤ 0.2
PGMQ	≤ 0.2
ASTW	≤ 0.2
AAIT	≤ 0.2
WMQC	≤ 0.2
FTQF	≤ 0.2
RSHV	≤ 0.2
MTCT	≤ 0.2
WTVH	≤ 0.2
TLIM	≤ 0.2
DNCS	≤ 0.2
QRAL	≤ 0.2
ANHL	≤ 0.2

Variant	one-hybrid fitness for binding parS DNA
YHET	≤ 0.2
PHNQ	≤ 0.2
RWNC	0.79
PLYF	≤ 0.2
PIVS	≤ 0.2
YDPR	≤ 0.2
NWQV	≤ 0.2
TYLF	≤ 0.2
CAFS	≤ 0.2
VYLA	≤ 0.2
TSIK	≤ 0.2
YQCR	≤ 0.2
QSLW	≤ 0.2
RDFT	≤ 0.2
TWVL	≤ 0.2
IWQG	≤ 0.2
YPHR	≤ 0.2
RWHM	≤ 0.2
NCTG	≤ 0.2
SNKW	≤ 0.2
